Results published in the supplement of paper PMC4967469.
pIC50: −log10 of the molar value. Lines with a small IC50 respond at low doses; a limit (>, <) means that the fit lies beyond the doses tested. AUC, from the same fit, is the share of area under the viability curve across the 256-fold dose range; values near 1 show little effect. For part of these data: Where the top dose is marked as inferred, it was derived from the fitted curves, not read from the paper.

How the values were obtained:
Assay in all cases: Viability of human cancer cell lines after 72 h of drug (GDSC screen)
[1] = compound: CC1(C)CCC(c2ccc(Cl)cc2)=C(CN2CCN(c3ccc(C(=O)NS(=O)(=O)c4ccc(N[C@H](CCN5CCOCC5)CSc5ccccc5)c(S(=O)(=O)C(F)(F)F)c4)cc3)CC2)C1 [ABT-263]; conditions: top dose 2 µM; top dose inferred
Protocol: (§1)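 Human cancer cell lines in 384-well plates, medium with 10% serum, drug for 72 h over a 256-fold dose range (nine 2-fold or five 4-fold steps up to the top dose). Adherent lines were fixed and stained with the nucleic acid dye Syto60, suspension lines read with resazurin; signal relative to control wells, capped at 0 and 100%. One two-parameter sigmoid per drug and line, fitted in a mixed model over all curves with the slope shared within a line.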

[2] = compound: Cn1cc(/C=C2\C(=O)Nc3cccnc32)c2ccccc21 [GW 441756]; conditions: top dose 2 µM; top dose inferred
Protocol: as §1

[3] = compound: CC(=O)Nc1nc(C)c(-c2ccc(Cl)c(S(=O)(=O)NCCO)c2)s1 [PIK-93]; conditions: top dose 20 µM
Protocol: as §1

[4] = compound: COc1cc(/C=C/C(=O)N2CCC=CC2=O)cc(OC)c1OC [piperlongumine]; conditions: top dose 10 µM
Protocol: as §1

| Cell Line | AUC [1] | pIC50 [1] | AUC [2] | pIC50 [2] | AUC [3] | pIC50 [3] | AUC [4] | pIC50 [4] |
| --- | --- | --- | --- | --- | --- | --- | --- | --- |
| CHSA0011 (chondrosarcoma, adherent) | 0.975 | < 5.70 | 0.897 | < 5.70 | 0.923 | < 4.70 | 0.814 | 5.07 |
| NCI-H1993 (lung adenocarcinoma, adherent) | 0.979 | < 5.70 | 0.977 | < 5.70 | 0.895 | < 4.70 | 0.717 | 5.50 |
| HCC1428 (breast, adherent) | 0.935 | < 5.70 | 0.983 | < 5.70 | 0.964 | < 4.70 | 0.878 | < 5.00 |
| A431 (skin, adherent) | 0.954 | < 5.70 | 0.987 | < 5.70 | 0.757 | 5.18 | 0.778 | 5.41 |
| KYSE-410 (oesophagus, adherent) | 0.927 | < 5.70 | 0.948 | < 5.70 | 0.894 | < 4.70 | 0.749 | 5.47 |
| OAW-42 (ovary, adherent) | 0.796 | 5.99 | 0.977 | < 5.70 | 0.801 | 4.97 | 0.705 | 5.60 |
| IPC-298 (melanoma, adherent) | 0.981 | < 5.70 | 0.987 | < 5.70 | 0.824 | 4.93 | 0.696 | 5.66 |
| HT-115 (large intestine, adherent) | 0.991 | < 5.70 | 0.981 | < 5.70 | 0.979 | < 4.70 | 0.838 | 5.23 |
| Capan-2 (pancreas, adherent) | 0.959 | < 5.70 | 0.985 | < 5.70 | 0.963 | < 4.70 | 0.878 | < 5.00 |
| MFE-280 (endometrium, adherent) | 0.886 | < 5.70 | 0.977 | < 5.70 | 0.751 | 5.09 | 0.698 | 5.58 |
| HCC-56 (large intestine, adherent) | 0.957 | < 5.70 | 0.983 | < 5.70 | 0.94 | < 4.70 | 0.79 | 5.34 |
| HGC-27 (stomach, adherent) | 0.98 | < 5.70 | 0.966 | < 5.70 | 0.665 | 5.48 | 0.567 | 6.03 |
| C32 (melanoma, adherent) | 0.881 | < 5.70 | 0.824 | 5.89 | 0.986 | < 4.70 | 0.754 | 5.45 |
| G-401 (kidney, adherent) | 0.983 | < 5.70 | 0.984 | < 5.70 | 0.733 | 5.21 | 0.741 | 5.48 |
| OV-56 (ovary, adherent) | 0.976 | < 5.70 | 0.967 | < 5.70 | 0.872 | 4.75 | 0.797 | 5.35 |
| WM35 (melanoma, adherent) | 0.95 | < 5.70 | 0.971 | < 5.70 | 0.605 | 5.61 | 0.771 | 5.41 |
| FTC-133 (thyroid, adherent) | 0.877 | < 5.70 | 0.986 | < 5.70 | 0.985 | < 4.70 | 0.801 | 5.26 |
| SK-N-AS (neuroblastoma, adherent) | 0.982 | < 5.70 | 0.943 | < 5.70 | 0.927 | < 4.70 | 0.751 | 5.43 |
| HT55 (large intestine, adherent) | 0.988 | < 5.70 | 0.978 | < 5.70 | 0.97 | < 4.70 | 0.874 | 5.02 |
| PCI-15A (head and neck, adherent) | 0.845 | 5.83 | 0.871 | 5.72 | 0.979 | < 4.70 | 0.819 | 5.24 |
| OC-314 (ovary, adherent) | 0.971 | < 5.70 | 0.982 | < 5.70 | 0.8 | 5.09 | 0.639 | 5.85 |
| SW756 (cervix, adherent) | 0.931 | < 5.70 | 0.574 | 6.69 | 0.965 | < 4.70 | 0.603 | 5.90 |
| NCI-H460 (large cell lung carcinoma, adherent) | 0.99 | < 5.70 | 0.933 | < 5.70 | 0.923 | < 4.70 | 0.939 | < 5.00 |
| CAL-85-1 (breast, adherent) | 0.97 | < 5.70 | 0.978 | < 5.70 | 0.846 | < 4.70 | 0.807 | 5.16 |
| SNU-182 (liver, adherent) | 0.813 | 5.94 | 0.846 | 5.81 | 0.824 | 4.90 | 0.75 | 5.47 |
| SBC-5 (small cell lung carcinoma, adherent) | 0.993 | < 5.70 | 0.993 | < 5.70 | 0.936 | < 4.70 | 0.797 | 5.43 |
| CCK-81 (large intestine, adherent) | 0.989 | < 5.70 | 0.99 | < 5.70 | 0.854 | 4.84 | 0.984 | < 5.00 |
